# Source: the supplement of paper PMC8728848
# The other results are listed elsewhere or left out.
# B1: CFEM-CGl (Candida glabrata), Q6FRS0 (protein)
# chain: VLATPPACLLACVAQVSKQSSQCHTLNQVGCFCENENTAIKNCLDSICPNGNSDAAYTAFKNSCGDVGKAVASV
# Experiments:
# Test in all cases: glycan array binding signal (z-score within array); higher = stronger binding
# Conditions in all cases: glycan notation: IUPAC condensed, linker removed
# Neu5Ac(a2-3)GalNAc = molecular target: Neu5Ac(a2-3)GalNAc
# Procedure, shortened: (§1)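 Glycan array data came from 3228 arrays in the Consortium for Functional Glycomics database, and only arrays with an available protein sequence were kept. Glycan names were put into IUPAC-condensed notation, and columns mapping to the same glycan were averaged. The binding signal is a within-array Z-score, averaged across arrays of one protein sequence run at different concentrations or buffers and across linkers. A negative Z-score can be read as non-binding.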
# [1] = molecular target: Neu5Ac(a2-3)GalNAc(b1-4)GlcNAc
# Procedure, shortened: as §1
# [2] = molecular target: Neu5Ac(a2-3)[GalNAc(b1-4)]Gal(b1-4)Glc
# Procedure, shortened: as §1
# [3] = molecular target: Neu5Ac(a2-3)[GalNAc(b1-4)]Gal(b1-4)GlcNAc
# Procedure, shortened: as §1
# [4] = molecular target: Neu5Ac(a2-3)[GalNAc(b1-4)]Gal(b1-4)GlcNAc(b1-3)GalNAc
# Procedure, shortened: as §1
# [5] = molecular target: Neu5Ac(a2-3)[Neu5Ac(a2-6)]GalNAc
# Procedure, shortened: as §1
# Neu5Ac(a2-6)Gal = molecular target: Neu5Ac(a2-6)Gal
# Procedure, shortened: as §1
# [6] = molecular target: Neu5Ac(a2-6)Gal(b1-3)GlcNAc(b1-3)[Gal(b1-4)GlcNAc(b1-6)]Gal(b1-4)Glc
# Procedure, shortened: as §1
# Neu5Ac(a2-6)Gal(b1-4)Glc = molecular target: Neu5Ac(a2-6)Gal(b1-4)Glc
# Procedure, shortened: as §1
# [7] = molecular target: Neu5Ac(a2-6)Gal(b1-4)GlcNAc
# Procedure, shortened: as §1
# [8] = molecular target: Neu5Ac(a2-6)Gal(b1-4)GlcNAc(b1-2)Man
# Procedure, shortened: as §1
# [9] = molecular target: Neu5Ac(a2-6)Gal(b1-4)GlcNAc(b1-2)Man(a1-3)Man(b1-4)GlcNAc(b1-4)GlcNAc
# Procedure, shortened: as §1
# [10] = molecular target: Neu5Ac(a2-6)Gal(b1-4)GlcNAc(b1-2)Man(a1-3)[Gal(b1-4)GlcNAc(b1-2)Man(a1-6)]Man(b1-4)GlcNAc(b1-4)GlcNAc
# Procedure, shortened: as §1
# [11] = molecular target: Neu5Ac(a2-6)Gal(b1-4)GlcNAc(b1-2)Man(a1-3)[GlcNAc(b1-2)Man(a1-6)]Man(b1-4)GlcNAc(b1-4)GlcNAc
# Procedure, shortened: as §1
# [12] = molecular target: Neu5Ac(a2-6)Gal(b1-4)GlcNAc(b1-2)Man(a1-3)[GlcNAc(b1-4)][Neu5Ac(a2-6)Gal(b1-4)GlcNAc(b1-2)Man(a1-6)]Man(b1-4)GlcNAc(b1-4)GlcNAc
# Procedure, shortened: as §1
# [13] = molecular target: Neu5Ac(a2-6)Gal(b1-4)GlcNAc(b1-2)Man(a1-3)[Man(a1-6)]Man(b1-4)GlcNAc(b1-4)GlcNAc
# Procedure, shortened: as §1
# [14] = molecular target: Neu5Ac(a2-6)Gal(b1-4)GlcNAc(b1-2)Man(a1-3)[Neu5Ac(a2-3)Gal(b1-4)GlcNAc(b1-2)Man(a1-6)]Man(b1-4)GlcNAc(b1-4)GlcNAc
# Procedure, shortened: as §1
# [15] = molecular target: Neu5Ac(a2-6)Gal(b1-4)GlcNAc(b1-2)Man(a1-3)[Neu5Ac(a2-6)Gal(b1-4)GlcNAc(b1-2)Man(a1-6)]Man(b1-4)GlcNAc(b1-4)GlcNAc
# Procedure, shortened: as §1
# [16] = molecular target: Neu5Ac(a2-6)Gal(b1-4)GlcNAc(b1-2)Man(a1-3)[Neu5Ac(a2-6)Gal(b1-4)GlcNAc(b1-2)Man(a1-6)]Man(b1-4)GlcNAc(b1-4)[Fuc(a1-6)]GlcNAc
# Procedure, shortened: as §1
# [17] = molecular target: Neu5Ac(a2-6)Gal(b1-4)GlcNAc(b1-2)Man(a1-6)Man(b1-4)GlcNAc(b1-4)GlcNAc
# Procedure, shortened: as §1
# [18] = molecular target: Neu5Ac(a2-6)Gal(b1-4)GlcNAc(b1-2)Man(a1-6)[Gal(b1-4)GlcNAc(b1-2)Man(a1-3)]Man(b1-4)GlcNAc(b1-4)GlcNAc
# Procedure, shortened: as §1
# [19] = molecular target: Neu5Ac(a2-6)Gal(b1-4)GlcNAc(b1-2)Man(a1-6)[GlcNAc(b1-2)Man(a1-3)]Man(b1-4)GlcNAc(b1-4)GlcNAc
# Procedure, shortened: as §1
# [20] = molecular target: Neu5Ac(a2-6)Gal(b1-4)GlcNAc(b1-2)Man(a1-6)[Man(a1-3)]Man(b1-4)GlcNAc(b1-4)GlcNAc
# Procedure, shortened: as §1
# [21] = molecular target: Neu5Ac(a2-6)Gal(b1-4)GlcNAc(b1-2)[Neu5Ac(a2-6)Gal(b1-4)GlcNAc(b1-4)]Man(a1-3)[GlcNAc(b1-4)][Neu5Ac(a2-6)Gal(b1-4)GlcNAc(b1-2)[Neu5Ac(a2-6)Gal(b1-4)GlcNAc(b1-6)]Man(a1-6)]Man(b1-4)GlcNAc(b1-4)GlcNAc
# Procedure, shortened: as §1
# [22] = molecular target: Neu5Ac(a2-6)Gal(b1-4)GlcNAc(b1-2)[Neu5Ac(a2-6)Gal(b1-4)GlcNAc(b1-4)]Man(a1-3)[GlcNAc(b1-4)][Neu5Ac(a2-6)Gal(b1-4)GlcNAc(b1-4)Man(a1-6)]Man(b1-4)GlcNAc(b1-4)GlcNAc
# Procedure, shortened: as §1
# [23] = molecular target: Neu5Ac(a2-6)Gal(b1-4)GlcNAc(b1-2)[Neu5Ac(a2-6)Gal(b1-4)GlcNAc(b1-6)]Man(a1-6)[Neu5Ac(a2-6)Gal(b1-4)GlcNAc(b1-2)Man(a1-3)][GlcNAc(b1-4)]Man(b1-4)GlcNAc(b1-4)GlcNAc
# Procedure, shortened: as §1
# [24] = molecular target: Neu5Ac(a2-6)Gal(b1-4)GlcNAc(b1-3)Gal(b1-3)GlcNAc
# Procedure, shortened: as §1
# [25] = molecular target: Neu5Ac(a2-6)Gal(b1-4)GlcNAc(b1-3)Gal(b1-4)GlcNAc
# Procedure, shortened: as §1
# [26] = molecular target: Neu5Ac(a2-6)Gal(b1-4)GlcNAc(b1-3)Gal(b1-4)GlcNAc(b1-2)Man(a1-3)[Neu5Ac(a2-6)Gal(b1-4)GlcNAc(b1-3)Gal(b1-4)GlcNAc(b1-2)Man(a1-6)]GalNAc
# Procedure, shortened: as §1
# [27] = molecular target: Neu5Ac(a2-6)Gal(b1-4)GlcNAc(b1-3)Gal(b1-4)GlcNAc(b1-3)Gal(b1-4)GlcNAc
# Procedure, shortened: as §1
# [28] = molecular target: Neu5Ac(a2-6)Gal(b1-4)GlcNAc(b1-3)Gal(b1-4)GlcNAc(b1-3)Gal(b1-4)GlcNAc(b1-2)Man(a1-3)[Neu5Ac(a2-6)Gal(b1-4)GlcNAc(b1-3)Gal(b1-4)GlcNAc(b1-3)Gal(b1-4)GlcNAc(b1-2)Man(a1-6)]GalNAc
# Procedure, shortened: as §1
# [29] = molecular target: Neu5Ac(a2-6)Gal(b1-4)GlcNAc(b1-3)Gal(b1-4)GlcNAc(b1-3)GalNAc
# Procedure, shortened: as §1
# [30] = molecular target: Neu5Ac(a2-6)Gal(b1-4)GlcNAc(b1-3)Gal(b1-4)GlcNAc(b1-3)[Neu5Ac(a2-6)Gal(b1-4)GlcNAc(b1-3)Gal(b1-4)GlcNAc(b1-6)]GalNAc
# Procedure, shortened: as §1
# [31] = molecular target: Neu5Ac(a2-6)Gal(b1-4)GlcNAc(b1-3)Gal(b1-4)GlcNAc(b1-6)[Gal(b1-3)]GalNAc
# Procedure, shortened: as §1
# [32] = molecular target: Neu5Ac(a2-6)Gal(b1-4)GlcNAc(b1-3)Gal(b1-4)[Fuc(a1-3)]GlcNAc(b1-3)Gal(b1-4)[Fuc(a1-3)]GlcNAc
# Procedure, shortened: as §1
# [33] = molecular target: Neu5Ac(a2-6)Gal(b1-4)GlcNAc(b1-3)GalNAc
# Procedure, shortened: as §1
# [34] = molecular target: Neu5Ac(a2-6)Gal(b1-4)GlcNAc(b1-3)[Neu5Ac(a2-6)Gal(b1-4)GlcNAc(b1-6)]GalNAc
# Procedure, shortened: as §1
# [35] = molecular target: Neu5Ac(a2-6)Gal(b1-4)GlcNAc(b1-6)GalNAc
# Procedure, shortened: as §1
binder,measurement,setting,value
B1,glycan array binding signal (z-score),Neu5Ac(a2-3)GalNAc,-0.034
same,glycan array binding signal (z-score),[1],-0.449
same,glycan array binding signal (z-score),[2],-0.063
same,glycan array binding signal (z-score),[3],-0.342
same,glycan array binding signal (z-score),[4],-0.187
same,glycan array binding signal (z-score),[5],-0.425
same,glycan array binding signal (z-score),Neu5Ac(a2-6)Gal,0.051
same,glycan array binding signal (z-score),[6],-0.355
same,glycan array binding signal (z-score),Neu5Ac(a2-6)Gal(b1-4)Glc,-0.129
same,glycan array binding signal (z-score),[7],-0.293
same,glycan array binding signal (z-score),[8],-0.367
same,glycan array binding signal (z-score),[9],-0.359
same,glycan array binding signal (z-score),[10],-0.369
same,glycan array binding signal (z-score),[11],-0.525
same,glycan array binding signal (z-score),[12],-0.428
same,glycan array binding signal (z-score),[13],-0.29
same,glycan array binding signal (z-score),[14],-0.45
same,glycan array binding signal (z-score),[15],-0.139
same,glycan array binding signal (z-score),[16],-0.178
same,glycan array binding signal (z-score),[17],-0.337
same,glycan array binding signal (z-score),[18],-0.409
same,glycan array binding signal (z-score),[19],-0.451
same,glycan array binding signal (z-score),[20],-0.332
same,glycan array binding signal (z-score),[21],-0.643
same,glycan array binding signal (z-score),[22],-0.393
same,glycan array binding signal (z-score),[23],-0.206
same,glycan array binding signal (z-score),[24],-0.342
same,glycan array binding signal (z-score),[25],-0.575
same,glycan array binding signal (z-score),[26],-0.069
same,glycan array binding signal (z-score),[27],0.051
same,glycan array binding signal (z-score),[28],4.31
same,glycan array binding signal (z-score),[29],-0.312
same,glycan array binding signal (z-score),[30],-0.204
same,glycan array binding signal (z-score),[31],0.714
same,glycan array binding signal (z-score),[32],-0.407
same,glycan array binding signal (z-score),[33],-0.36
same,glycan array binding signal (z-score),[34],-0.174
same,glycan array binding signal (z-score),[35],0.305
